The supplement of paper PMC9446081
The campaign covered roughly 39,000 compounds. About 220 (0.56%) showed activity. Some of the results follow.

Each compound was assayed on Escherichia coli K-12 BW25113 (assay: relative growth (OD600 normalised to plate interquartile mean) (fraction); higher = less growth inhibition, active = 0.2 or less). Settings: 50 µM; LB; incubation time: overnight (16-24 h).
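Also: static incubation at 37 °C against the wild-type strain, values averaged over two biological replicates.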

Row | Compound | relative growth
1 | C[C@@H]1CCCCO[C@@H](CN(C)C(=O)Nc2ccc3c(c2)OCO3)[C@@H](C)CN([C@@H](C)CO)C(=O)c2cc(NC(=O)Nc3ccc(F)cc3)ccc2O1 | inactive: 1.03
2 | CN1CCC[C@]2(CCN(C(=O)CCn3ccc(=O)[nH]c3=O)C2)C1=O | inactive: 0.987
3 | CCCN(C)C[C@H]1OCCCC[C@H](C)Oc2ccc(NS(=O)(=O)c3ccc(Cl)cc3)cc2C(=O)N([C@@H](C)CO)C[C@H]1C | inactive: 0.973
4 | C[C@@H]1CCCCO[C@@H](CN(C)Cc2ccc3c(c2)OCO3)[C@H](C)CN([C@H](C)CO)C(=O)c2cc(NC(=O)Nc3ccccc3)ccc2O1 | inactive: 0.98
5 | C[C@@H]1CN([C@@H](C)CO)C(=O)c2cc(NS(=O)(=O)c3ccc(Cl)cc3)ccc2O[C@@H](C)CCCCO[C@@H]1CN(C)Cc1ccc(C(=O)O)cc1 | inactive: 1.05
6 | COc1ccc(NC(=O)N(C)C[C@H]2Oc3ccc(NC(=O)Nc4ccc(C(F)(F)F)cc4)cc3C(=O)N([C@H](C)CO)C[C@H]2C)cc1 | inactive: 1.02
7 | COc1ccc(S(=O)(=O)N(C)C[C@@H]2Oc3ccc(NC(=O)c4ccncc4)cc3C(=O)N([C@H](C)CO)C[C@H]2C)cc1 | inactive: 1.01
8 | CC(C)NC(=O)N(C)C[C@@H]1Oc2ccc(NC(=O)CCN3CCOCC3)cc2C(=O)N([C@H](C)CO)C[C@H]1C | inactive: 1
9 | Nc1ccccc1C(=O)NCCN1CCNC1=O | inactive: 1.01
10 | COc1ccc(CN(C)C[C@@H]2OCCCC[C@@H](C)Oc3ccc(NC(=O)CCC(F)(F)F)cc3C(=O)N([C@H](C)CO)C[C@@H]2C)cc1 | inactive: 1.01
11 | C[C@H]1CN([C@@H](C)CO)C(=O)CCCn2cc(nn2)CO[C@H]1CN(C)C(=O)Nc1cccc2ccccc12 | inactive: 1
12 | C=CC[C@@H](CC(=O)N(CCO)Cc1ccccc1)C(=O)N[C@H](COC(=O)[C@H](CC=C)NC(=O)OCC1c2ccccc2-c2ccccc21)C(C)(C)C | inactive: 1.01
13 | O=C(O)CN1CCOC1=O | inactive: 1.02
14 | C[C@H](CO)N1C[C@H](C)[C@@H](CN(C)Cc2ccccc2)Oc2ccc(NC(=O)CCCCCC(=O)Nc3ccccc3N)cc2C1=O | inactive: 1.01
15 | Cc1noc(C)c1NC(=O)Nc1ccc2c(c1)C(=O)N([C@@H](C)CO)C[C@H](C)[C@@H](CN(C)S(C)(=O)=O)O2 | inactive: 0.987
16 | CCc1nc2ccccc2nc1CC | inactive: 0.997
17 | C[C@H]1CN([C@@H](C)CO)C(=O)Cc2cc(NS(=O)(=O)c3ccccc3)ccc2O[C@H]1CN(C)S(C)(=O)=O | inactive: 1.03
18 | COc1ccccc1OC[C@@H](O)COC(N)=O | inactive: 1.02
19 | C[C@H](CO)N1C[C@H](C)[C@@H](CN(C)CC2CCCCC2)OCCCC[C@H](C)Oc2ccc(NC(=O)Nc3ccc4c(c3)OCO4)cc2C1=O | inactive: 1.02
20 | Cc1noc(C)c1S(=O)(=O)Nc1ccc2c(c1)C(=O)N([C@H](C)CO)C[C@@H](C)[C@H](CN(C)C(=O)Nc1ccc(C(F)(F)F)cc1)OCCCC[C@@H](C)O2 | inactive: 0.992

Row | Compound | relative growth
21 | C[C@@H](C(=O)N(C)C[C@@H]1OCc2ccccc2-c2c(n(C)c3ccccc23)C(=O)N([C@@H](C)CO)C[C@@H]1C)c1ccccc1 | inactive: 1.01
22 | CC(C)N1C[C@H](C)[C@@H](CN(C)Cc2ccc(Cl)c(Cl)c2)Oc2c(C(=O)Nc3ccncc3)cccc2C1=O | inactive: 0.965
23 | CO[C@@H]1CN(C)C(=O)c2cc(NS(=O)(=O)c3cn(C)cn3)ccc2OC[C@@H](C)N(CCC(F)(F)F)C[C@H]1C | inactive: 0.976
24 | C=C(C)C1CCC2(C(=O)O)CCC3(C)C(CCC4C5(C)CCC(O)C(C)(C)C5CCC43C)C12 (centres undefined) | inactive: 0.93
25 | COc1ccc(S(=O)(=O)Nc2ccc3c(c2)C(=O)N([C@@H](C)CO)C[C@H](C)[C@H](CN(C)Cc2ccc4c(c2)OCO4)OCCCC[C@H](C)O3)cc1 | inactive: 0.984
26 | CN1CCN(C(=O)[C@H]2C[C@H]3CN(c4ncc(F)cn4)C[C@@H]3N2C)CC1 | inactive: 1
27 | C[C@H](CO)N1C[C@H](C)[C@H](CN(C)C(=O)Nc2ccc(F)cc2)OCCCC[C@H](C)Oc2ccc(NC(=O)C3CCCCCC3)cc2C1=O | inactive: 0.991
28 | Cc1noc(C)c1NC(=O)N(C)C[C@@H]1Oc2c(NC(=O)Nc3cccc4ccccc34)cccc2C(=O)N([C@H](C)CO)C[C@@H]1C | inactive: 1
29 | COc1ccccc1-c1ccc2c(c1)O[C@@H](CN(C)S(=O)(=O)c1ccccc1)[C@H](C)CN([C@H](C)CO)S2(=O)=O | inactive: 0.996
30 | COc1ccc2c3c([nH]c2c1)[C@@H](CO)N(Cc1ccc(cc1)Cl)C[C@]13CN(CCc2ccccc2)C1 | inactive: 0.849
31 | CC(=O)Oc1cc(-c2coc3cc(OC(C)=O)c(OC(C)=O)c(OC(C)=O)c3c2=O)cc(OC(C)=O)c1OC(C)=O | inactive: 1.01
32 | C[C@@H]1CN([C@@H](C)CO)C(=O)Cc2cc(NS(=O)(=O)c3ccc(Cl)cc3)ccc2O[C@H]1CN(C)S(C)(=O)=O | inactive: 1
33 | CCCC[P+](CCCC)(CCCC)Cc1ccc(NC(=O)[C@H](Cc2ccc3ccccc3c2)N/C(=N/C2CCCCC2)NC2CCCCC2)cc1 | active: 0.0326
34 | C[C@@H]1CCCCO[C@@H](CN(C)C(=O)Nc2ccc3c(c2)OCO3)[C@@H](C)CN([C@@H](C)CO)C(=O)c2cc(NC(=O)Nc3ccc(C(F)(F)F)cc3)ccc2O1 | inactive: 0.991
35 | C[C@@H]1CN([C@H](C)CO)C(=O)CCCn2cc(nn2)CO[C@@H]1CN(C)S(=O)(=O)c1ccc(-c2ccccc2)cc1 | inactive: 0.969
36 | C[C@@H]1CCCCO[C@H](CN(C)S(=O)(=O)c2cccs2)[C@H](C)CN([C@H](C)CO)C(=O)c2cc(NC(=O)C3CCCCC3)ccc2O1 | inactive: 1.03
37 | COc1ccc(CN(C)C[C@H]2Oc3ccc(NS(C)(=O)=O)cc3C(=O)N([C@H](C)CO)C[C@@H]2C)cc1 | inactive: 0.998
38 | CNC[C@@H]1Oc2ccc(NC(=O)Cn3cnnn3)cc2CC(=O)N([C@@H](C)CO)C[C@H]1C | inactive: 1.02
39 | COc1ccc([C@@H](NC(=O)C2CCN(Cc3ccc(Oc4ccccc4)cc3)CC2)c2ccccn2)cc1 | inactive: 1.04
40 | C[C@H]1CN([C@@H](C)CO)C(=O)CCCn2cc(nn2)CO[C@H]1CN(C)C(=O)Nc1cccc(C(F)(F)F)c1 | inactive: 0.991

Row | Compound | relative growth
41 | C[C@@H]1CCCCO[C@@H](CN(C)S(=O)(=O)c2cn(C)cn2)[C@@H](C)CN([C@H](C)CO)C(=O)c2cc(NS(=O)(=O)c3cn(C)cn3)ccc2O1 | inactive: 1.02
42 | C[C@@H]1CN([C@@H](C)CO)C(=O)c2cc(NC(=O)Nc3ccc(C(F)(F)F)cc3)ccc2O[C@@H]1CN(C)C(=O)Nc1ccc2c(c1)OCO2 | inactive: 1.03
43 | COc1ccc(S(=O)(=O)N(C)C[C@@H]2Oc3c(NC(=O)Nc4c(C)noc4C)cccc3C(=O)N([C@@H](C)CO)C[C@@H]2C)cc1 | inactive: 1.01
44 | C[C@H](CO)N1C[C@H](C)[C@H](CN(C)C(=O)Nc2ccc(C(F)(F)F)cc2)Oc2ccc(NC(=O)Cc3cn(C)c4ccccc34)cc2CC1=O | inactive: 1.03
45 | CCCN(C)C[C@H]1OCCCC[C@@H](C)Oc2ccc(NC(=O)CCC(F)(F)F)cc2C(=O)N([C@H](C)CO)C[C@@H]1C | inactive: 0.979
46 | CN1CCN(C(=O)C[C@@H]2CC[C@@H]3[C@@H](COc4ccc(NC(=O)C5CCOCC5)cc4C(=O)N3C)O2)CC1 | inactive: 1.01
47 | CCCNC(=O)[C@@]1(Sc2ccc(C)cc2)CC(=O)N(Cc2ccccc2C(F)(F)F)[C@@H]1c1ccc(CO)cc1 | inactive: 0.978
48 | C[C@H]1CN([C@@H](C)CO)C(=O)Cc2cc(NC(=O)CCC(F)(F)F)ccc2O[C@@H]1CN(C)Cc1ccc(C(F)(F)F)cc1 | inactive: 1.03
49 | Cc1ccc(S(=O)(=O)N(C)C[C@H]2OCCCC[C@@H](C)Oc3ccc(NC(=O)Nc4ccc(F)cc4)cc3C(=O)N([C@@H](C)CO)C[C@H]2C)cc1 | inactive: 1.06
50 | C[C@H]1CN([C@@H](C)CO)C(=O)c2cccc(NC(=O)Nc3cccc4ccccc34)c2O[C@H]1CN(C)Cc1ccc(Cl)c(Cl)c1 | inactive: 1.01
51 | CN1CCN(C(=O)C[C@H]2CC[C@@H]3[C@@H](COc4ccc(NC(=O)C5CCCCC5)cc4C(=O)N3C)O2)CC1 | inactive: 0.992
52 | COc1ccc(NC(=O)Nc2cccc3c2O[C@H](CN(C)Cc2ccc(C(F)(F)F)cc2)[C@@H](C)CN([C@H](C)CO)C3=O)cc1 | inactive: 0.779
53 | C[C@@H]1CN([C@@H](C)CO)C(=O)c2cccc(NC(=O)c3nc4ccccc4s3)c2O[C@H]1CN(C)S(=O)(=O)c1cn(C)cn1 | inactive: 1.05
54 | COc1ccc(CN(C)C[C@@H]2Oc3c(NS(=O)(=O)c4c(C)noc4C)cccc3C(=O)N([C@H](C)CO)C[C@@H]2C)cc1 | inactive: 0.991
55 | CN(C)CCCNC(=O)C[C@H]1CC[C@@H]2[C@H](COc3ccc(NS(C)(=O)=O)cc3C(=O)N2C)O1 | inactive: 1
56 | COCC#Cc1ccc2c(c1)O[C@H](CN(C)C(=O)C1CCOCC1)[C@@H](C)CN([C@H](C)CO)S2(=O)=O | inactive: 0.957
57 | CCCCOC(=O)CSc1n[nH]c(=O)[nH]c1=O | inactive: 1.02
58 | C[C@@H]1CN([C@H](C)CO)C(=O)c2cc(NC(=O)Cc3ccccc3)ccc2O[C@@H](C)CCCCO[C@@H]1CN(C)S(=O)(=O)c1ccc(F)cc1 | inactive: 1.04
59 | Cc1noc(C)c1NC(=O)Nc1ccc2c(c1)C(=O)N([C@H](C)CO)C[C@H](C)[C@H](CN(C)Cc1ccc(C(F)(F)F)cc1)OCCCC[C@H](C)O2 | inactive: 0.994
